# In PMC4336329 (PLoS ONE, 2015):
# Among all 310,000 compounds or so, about 14,000 (4.5%) showed an effect of 50% or more. Effects have a minus sign here. The list shows a part of the results.
# Target: human ether-à-go-go-related gene (hERG) potassium channel (human, UniProt Q12809)
# Experiment: primary screen, population patch clamp on CHO cells stably expressing hERG
# 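Further: peak tail current of the secondary pulse compared with the same well before compound.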
# Sequence of human ether-à-go-go-related gene (hERG) potassium channel (Q12809 whole entry, looked up): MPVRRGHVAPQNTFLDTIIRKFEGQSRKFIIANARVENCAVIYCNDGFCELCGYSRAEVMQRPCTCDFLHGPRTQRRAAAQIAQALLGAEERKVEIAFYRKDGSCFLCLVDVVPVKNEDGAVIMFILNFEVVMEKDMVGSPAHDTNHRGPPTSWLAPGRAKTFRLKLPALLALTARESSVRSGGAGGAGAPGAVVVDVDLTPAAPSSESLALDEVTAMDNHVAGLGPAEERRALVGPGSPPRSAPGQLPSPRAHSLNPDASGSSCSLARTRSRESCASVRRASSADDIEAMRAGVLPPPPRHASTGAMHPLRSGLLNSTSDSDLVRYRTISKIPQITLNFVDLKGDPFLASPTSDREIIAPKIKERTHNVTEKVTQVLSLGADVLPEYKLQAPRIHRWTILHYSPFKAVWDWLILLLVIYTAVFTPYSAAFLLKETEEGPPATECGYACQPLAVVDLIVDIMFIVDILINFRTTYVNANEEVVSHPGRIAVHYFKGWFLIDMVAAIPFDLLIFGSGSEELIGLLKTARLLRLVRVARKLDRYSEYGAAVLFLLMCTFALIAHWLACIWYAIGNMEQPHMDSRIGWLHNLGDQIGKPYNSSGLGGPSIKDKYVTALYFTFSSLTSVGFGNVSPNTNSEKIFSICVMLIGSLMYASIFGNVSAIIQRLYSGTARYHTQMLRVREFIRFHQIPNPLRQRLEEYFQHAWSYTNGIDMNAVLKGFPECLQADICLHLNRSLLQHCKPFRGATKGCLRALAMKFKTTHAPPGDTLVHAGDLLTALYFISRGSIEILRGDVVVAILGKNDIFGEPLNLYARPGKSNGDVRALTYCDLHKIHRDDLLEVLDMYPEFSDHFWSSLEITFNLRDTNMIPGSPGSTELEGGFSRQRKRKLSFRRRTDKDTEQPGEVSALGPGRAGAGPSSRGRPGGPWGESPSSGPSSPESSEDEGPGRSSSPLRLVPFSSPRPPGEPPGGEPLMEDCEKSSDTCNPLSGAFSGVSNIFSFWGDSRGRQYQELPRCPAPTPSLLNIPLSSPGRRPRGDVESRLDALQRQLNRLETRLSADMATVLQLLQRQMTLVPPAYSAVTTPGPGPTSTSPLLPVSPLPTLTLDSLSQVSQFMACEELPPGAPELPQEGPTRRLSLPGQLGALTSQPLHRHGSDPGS
row,Compound,"hERG current change (%, negative = inhibition) at 10uM [%]"
1,CCc1nnc(NC(=O)CSc2ccc(-c3ccco3)nn2)s1,3.73
2,O=C(Nc1cccn2ncnc12)C(F)(F)F,21.7
3,Cn1c(SCc2ccccc2)nc2ccsc2c1=O,2.72
4,CCOc1ccc(-n2c(SCC(=O)NC(C)CC)nc3n[nH]c(C)c3c2=N)cc1 (centres unmarked),10.2
5,CCOc1ccc(NC(=O)CN(Cc2ccccc2)S(C)(=O)=O)cc1,4.03
6,CC(C)N(CCNC(=O)c1oc(=O)c2ccccc2c1-c1ccccc1)Cc1ccco1,-67.9
7,COc1ccc(-n2c(Cc3cccn3C)nnc2SCC(=O)Nc2nc(C)cs2)cc1,-6.16
8,COc1ccc(COC(=O)C2=C(C)NC(=O)NC2c2ccc(O)cc2)cc1 (centres unmarked),-3.47
9,Cc1ccc(N2CCCC2=O)cc1S(=O)(=O)N1CCOCC1,9.97
10,CC(C)(C)c1ccc(C(=O)Nc2ccc(C(=O)N3CCCC3)cc2)cc1,-37.6
11,CC1(C)C2([N+](=O)[O-])CN3CC1([N+](=O)[O-])CN(C2)C31CCCC1,-14
12,O=C(NCCN1CCOCC1)c1ccccc1[N+](=O)[O-],1.06
13,Fc1ccccc1-n1cc(-c2ccccc2)[nH]c1=S,17.9
14,COc1ccc(S(=O)(=O)NCCCCCC(=O)O)cc1C(=O)O,28.4
15,CCCc1nnc(SCC(=O)Nc2nc(C)cs2)n1CCOC,4.13
16,Cc1c(OCC(=O)NC2CC(C)(C)NC(C)(C)C2)ccc2c3c(c(=O)oc12)CCC3,14.4
17,COc1ccc(C2(NC(C)=O)CCN(C(=O)CCC(=O)O)CC2)cc1,10.3
18,COc1ccc(C(=O)N/N=C/c2ccc(OC)c(COc3ccc(F)cc3F)c2)cc1,3.74
19,Oc1ccccc1-c1cc(C(F)(F)C(F)F)[nH]n1,1.94
20,Clc1ccc(C#Cc2cccnc2)cc1,-2.6
21,Cn1c(Cc2ccccc2)nnc1SCC(=O)NC1CC1,-8.78
22,COCc1nnc(NS(=O)(=O)c2ccc(Br)cc2)s1,14.1
23,CCOc1ccc(NC(=S)N(CCc2ccncc2)C(C)C)cc1,-50.6

row,Compound,"hERG current change (%, negative = inhibition) at 10uM [%]"
1,CCn1c(COc2ccccc2C)nc2ccccc21,4.07
2,CCc1ccccc1NC(=O)c1cc(-c2ccc3c(c2)OCO3)on1,3.52
3,CCC(=O)c1c(OCc2ccccc2)ccc2c(C)cc(=O)oc12,3.37
4,C[C@H](NC(=O)c1nc[nH]c1C(=O)N[C@@H](C)c1ccccc1)c1ccccc1,4.47
5,Cc1ccc(C(=O)OCC(=O)c2c(N)n(C)c(=O)n(C)c2=O)cc1S(=O)(=O)N1CCOCC1,-22.4
6,c1ccc(Nc2ccc(-n3ccnc3)nn2)cc1,12.2
7,Cn1c(O)c(N=NC(=O)CNC(=O)/C=C/c2ccccc2)c2ccccc21,-16.9
8,COc1ccccc1C(=O)NCC(=O)OC(C)C(=O)N1CCOCC1 (centres unmarked),24.9
9,Cc1nn(C)cc1CN(C)C(=O)c1cc(COc2ccc(F)cc2F)on1,-2.16
10,c1cc2ccc3ccc(CN4CCOCC4)c4ccc(c1)c2c34,5.3
11,CCN(C(C)=O)N(CC)c1nc(Cl)nc(NC(C)C)n1,-8.48
12,O=C(Nc1ccccc1)OCCOc1ccccc1Br,28.3
13,Cc1nn(-c2ccccc2)nc1C(=O)NN,9.05
14,COc1ccc(NC(=O)C2CC(=O)NC3=C2C(=O)CC(C)(C)C3)cc1 (centres unmarked),-1.79
15,COc1cccc(C2CC(c3ccccc3)Nc3nc(N)nn32)c1 (centres unmarked),-7.93
16,Cc1ccc(NC(=S)N2CCN(c3ccccn3)CC2)cc1C,12.3
17,Cc1cc(C)c2c(c1)/C(=N/Nc1ccc(S(N)(=O)=O)cc1[N+](=O)[O-])CCC2,14.6
18,COc1cccc(/C=C2\Oc3cc(OCC(=O)N4CCCCC4)ccc3C2=O)c1OC,18.6
19,CCNC(=O)C(=O)N1CCC2(CC1)OCCN2S(=O)(=O)c1ccc(C)cc1,2.81
20,O=C(Nc1cccc(Cl)c1)Nc1ccon1,9.69
21,CC(=O)Nc1sc(C)c(C)c1C(=O)OCCOc1ccccc1,15.3
22,COc1ccc(/C=N/Nc2cc(N3CCOCC3)ncn2)c(OC)c1,2.69
23,c1cn(CCCNC2=NCCCCC2)cn1,4.23

row,Compound,"hERG current change (%, negative = inhibition) at 10uM [%]"
1,c1ccc(CCn2nnc3ccccc32)cc1,-9.57
2,COc1cccc(OCC(=O)N2CCN(C)CC2)c1,-10.1
3,Cc1cc(C(=O)N2CCC(C)CC2)on1,1.18
4,c1nc(NC2CCCCCC2)c2[nH]cnc2n1,17.5
5,O=C(Cc1csc(NC(=O)Nc2ccc(Cl)cc2)n1)NC1CCCC1,9.13
6,NNC(=O)COc1ccc(-c2nccc(-c3ccc(F)cc3)n2)cc1,16.1
7,C/C=C\C=C\C(=O)N1CC2(CC(c3cccc(NC(=O)COc4ccc(Cl)cc4)c3)=NO2)C[C@H]1C(N)=O (some centres unmarked),-76.9
8,CCOC(=O)c1nc(Nc2cc(Cl)ccc2OC)c2ccccc2n1,6.83
9,CC(C)N(C(=S)Nc1cccc(S(=O)(=O)N(C)C)c1)c1ccccc1,1.6
10,CCn1c(=O)c(C(=O)CN2CC(C)OC(C)C2)c(N)n(Cc2ccccc2)c1=O (centres unmarked),-32.6
11,O=C(NCc1ccccc1)c1ccc(C(=O)N(C2CCCCC2)C2CCCCC2)cc1,-10.3
12,COc1cc(C(=O)NNC(=O)c2cc(-c3ccccc3)n[nH]2)cc(OC)c1C,-3.32
13,COc1ccc(N2C(=O)CC(SC(C)C)C2=O)cc1 (centres unmarked),3.98
14,Cc1ccc2c(c1)N(C(=O)CCC(=O)NCCCN1CCN(C)CC1)CC(C)O2 (centres unmarked),9.95
15,CCCNc1c(N)n(-c2ccccc2)c(=O)[nH]c1=O,6.25
16,CCOc1ccc(C(=O)COC(=O)CNC(=O)C2CCCCC2)cc1,-0.0501
17,CCc1cc(C(=O)N(Cc2ccccc2)c2c(N)n(CCOC)c(=O)[nH]c2=O)sc1C,-0.171
18,CSCCC(NC(=O)COc1ccccc1)C(=O)N(C)Cc1ccc(F)cc1 (centres unmarked),-50.3
19,COCCN(C(=O)COC(=O)/C=C/c1ccco1)c1c(N)n(Cc2ccccc2)c(=O)[nH]c1=O,12.2
20,CCC1(CCCC(=O)c2ccc(F)cc2)C(=O)NC(=S)NC1=O,-3.66
21,CCOC(=O)CNC(=O)N1CCC(CCC(=O)N(C)Cc2ccccc2)CC1,9.99
22,CNc1c(NS(=O)(=O)c2cc(OC)ccc2OC)c(=O)oc2ccccc12,10.3
23,CC(CC1C(C#N)=C(N)SC(N)=C1C#N)c1ccccc1 (centres unmarked),1.38

row,Compound,"hERG current change (%, negative = inhibition) at 10uM [%]"
1,CCN(CC)c1ccc(NC(=O)C2CCC(CNc3c(N4CCCC4)c(=O)c3=O)CC2)c(C)c1 (centres unmarked),18.5
2,CN=c1scc(C)n1/N=C/c1ccc(O)c(O)c1O,23.8
3,Cc1ccc(OCCC(=O)N(Cc2ccccc2)c2c(N)n(Cc3ccccc3)c(=O)[nH]c2=O)cc1,-6.6
4,Cc1ncc(CO)c2cc(C(=O)Nc3cccc(F)c3)c(=Nc3cccc(C(N)=O)c3)oc12,17.2
5,O=C(CCN1C(=O)S/C(=C/c2ccc(Cl)cc2)C1=O)N1CCOCC1,-1.83
6,Cc1cc(C(=O)Nc2ccc(F)cc2F)on1,17.5
7,Cc1ccc(C(=O)Cn2cc([N+](=O)[O-])nc2C)cc1,2.57
8,COc1ccc(CCNS(=O)(=O)c2cccs2)cc1,-1.5
9,CN(C)/C=C(\C#N)c1nc2ccccc2[nH]1,0.759
10,Cc1nn(Cc2ccccc2Cl)c(Cl)c1C(=O)OC(C(=O)NC(N)=O)C(C)C (centres unmarked),4.02
11,CN(C)c1cccc(C(=O)OCC(=O)Nc2ccccc2Cl)c1,17.9
12,CCOc1ccc(-c2cc(C(=O)N/N=C/c3ccc(O)cc3)c3ccccc3n2)cc1,4.93
13,OC(CNCC1CCCCC1)COc1ccccc1 (centres unmarked),-0.428
14,CCn1c2ccccc2c2nnc(SCC(=O)Nc3ncccn3)nc21,-12.1
15,Cc1ccc(C2C(C(=O)c3cc4ccccc4o3)=C(O)C(=O)N2CCN2CCOCC2)o1 (centres unmarked),8
16,Cc1cc(-c2nnc(SCC(=O)c3ccc(F)cc3)o2)no1,17.2
17,Cc1ccc(N2CCN(c3ccc(C)cc3)C2c2cccnc2)cc1,17.6
18,CCOC(=O)c1c(C)n(-c2ccccc2)c2ccc(OCCN(C)C)cc12,-10.6
19,CC(C)Cn1c(=O)c2c(nc3n2CCCN3Cc2ccccc2)n(C)c1=O,-50
20,Brc1ccc(C2CC(c3ccccc3)=Nc3ccccc3N2)cc1 (centres unmarked),13.6
21,O=C(Nc1cccnc1)c1cccc(S(=O)(=O)N2CCCCC2)c1,5.67
22,NC(=O)C1CCN(CC(=O)Nc2nccs2)CC1,10.9
23,Cc1nc(Cc2ccc(OC(C)C)cc2)[nH]c(=O)c1CC(=O)O,11
